Source: patent publication US20230002478A1 (TWIST BIOSCIENCE, published 2023)

Key:
[1] = biological target: biotinylated SARS-CoV-2 spike trimer, Omicron (B.1.1.529) (SARS-CoV-2); experiment: AlphaLISA, inhibition of ACE2-muFc / biotinylated spike complex
[2] = biological target: biotinylated SARS-CoV-2 spike trimer, Delta (SARS-CoV-2); experiment: as above

B1: bispecific monoclonal antibody 493-004 (bispecific antibody)
chain: EVQLVESGGGLVQPGGSLRLSCAASGFTFSPSWMGWFRQAPGKEREFVATINEYGGRNYADSVKGRFTISADNSKNTAYLQMNSLKPEDTAVYYCARVDRDFDYWGQGTLVTVSSGGGGS[no letters for human IgG1 Fc with C220S (EU numbers)]GGGSGGGGSASEVQLVESGGGLVQPGGSLRLSCAASGSTFSINAMGWFRQAPGKEREFVAGITSSGGYTNYADSVKGRFTISADNSKNTAYLQMNSLKPEDTAVYYCAADGVPEYSDYASGPVWGQGTLVTVSS
- IC50 [1]: 9.04 nM
- IC50 [2]: 8.8 nM
